# Measured values published in the supplement of paper PMC4166925.
# ± gives the standard deviation of the averaged measurements. Over roughly 33,000 sequences, “E-score (dimensionless, -0.5 to 0.5)” has its median near -0.049; the highest 2% begin near 0.37. The list shows a part of the results.
# Test system: T1, PmTbr T-box DNA-binding domain (GST fusion)
# T1 sequence: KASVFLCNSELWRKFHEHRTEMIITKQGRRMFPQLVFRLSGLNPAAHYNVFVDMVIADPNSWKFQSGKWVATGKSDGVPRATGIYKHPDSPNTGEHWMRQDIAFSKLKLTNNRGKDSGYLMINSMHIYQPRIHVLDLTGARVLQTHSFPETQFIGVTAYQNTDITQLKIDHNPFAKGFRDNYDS
# Assay: PBM E-score of 8-mer (E-score (dimensionless, -0.5 to 0.5)); Tbr is Tbrain of the sea star Patiria miniata (Pm) or the sea urchin Strongylocentrotus purpuratus (Sp); higher = stronger binding preference; most listed sequences are background and not binding sites
# Conditions: the construct has about 5 more residues each side
# Method: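 Universal protein-binding microarray (Agilent AMADID 016060, 60-bp probes with a 35-bp variable region) incubated with 200 nM GST-fused Patiria miniata Tbr T-box DNA-binding domain (residues 272-466) in PBS pH 7.5. Scored for every ungapped 8-mer (given with its reverse complement) by the Universal PBM Analysis Suite as E-score (modified Wilcoxon-Mann-Whitney enrichment, range -0.5 to 0.5; >0.45 counts as bound) and Z-score of median probe intensity. Two replicate arrays (datasets 1 and 2).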
row,Sequence,PBM E-score of 8-mer
1,AGAAGGGA,-0.301 ± 0.082
2,GGAGGTTA,-0.0747 ± 0.017
3,AAACAACT,0.0442 ± 0.078
4,GCCGAGCA,0.0159 ± 0.0034
5,GTATATCA,0.0135 ± 0.0068
6,AAAGAGGA,-0.0356 ± 0.0083
7,CGGTCAGC,-0.22 ± 0.1
8,AAATTAGC,0.24 ± 0.01
9,CACCTCCC,0.423 ± 0.0044
10,TTCTGAAA,-0.273 ± 0.058
11,CATTTGCC,-0.123 ± 0.021
12,ATACTGTA,0.00607 ± 0.042
13,GACGTCTA,-0.0955 ± 0.025
14,ACAACCGG,-0.122 ± 0.0046
15,CGAGTACC,-0.0996 ± 0.0095
16,AGGCGCAC,0.0455 ± 0.023
17,AATGATAC,-0.0724 ± 0.057
18,CACTTCAA,0.248 ± 0.012
19,CACTGATC,-0.0239 ± 0.058
20,CGCCCTTA,0.0943 ± 0.022
21,CCTGAAAC,-0.0626 ± 0.0012
22,CTTTACCC,-0.183 ± 0.015
23,CATATTCA,0.0904 ± 0.063
24,AGGGTGAA,0.143 ± 0.012
25,CGGCATGA,-0.0778 ± 0.05

row,Sequence,PBM E-score of 8-mer
1,CTGCGTGC,0.00062 ± 0.07
2,CCCTGCTC,-0.215 ± 0.0043
3,GGAGACCA,-0.146 ± 0.073
4,CTCTAGGC,0.0553 ± 0.035
5,CCGGACGG,-0.207 ± 0.016
6,ATACGTGG,-0.136 ± 0.072
7,CGTAGAAG,-0.351 ± 0.059
8,GGTTTGAC,0.0502 ± 0.028
9,TAAATCCA,-0.117 ± 0.13
10,ATATCTGG,-0.218 ± 0.0023
11,ACTACGAC,-0.128 ± 0.038
12,CTTCATTC,-0.243 ± 0.1
13,CTCCGCAG,-0.0327 ± 0.049
14,GCATATAA,-0.136 ± 0.041
15,CTCGCTCA,-0.069 ± 0.031
16,CACATTGC,0.257 ± 0.038
17,CTGCCTTA,-0.0599 ± 0.015
18,ATCGGATA,-0.0872 ± 0.069
19,CGTGATCC,0.0775 ± 0.019
20,CACCCTAC,0.183 ± 0.076
21,CTGGCGCC,0.258 ± 0.053
22,CGGGGAGA,-0.109 ± 0.015
23,CCCTAAAG,-0.169 ± 0.037
24,CTGAGCTC,-0.201 ± 0.043
25,AAGCAAGG,-0.0157 ± 0.0054

row,Sequence,PBM E-score of 8-mer
1,TACCAGGA,-0.199 ± 0.05
2,AACCTCAG,-0.26 ± 0.042
3,TAAAGTCA,-0.194 ± 0.077
4,ATGTAGCA,-0.0339 ± 0.056
5,ACTATATG,-0.164 ± 0.081
6,TTAGTGAA,-0.048 ± 0.037
7,AGAATCGG,-0.0675 ± 0.025
8,CAAGGCCC,-0.0733 ± 0.026
9,CAAAAGAC,-0.165 ± 0.02
10,GATGCCCA,-0.0504 ± 0.039
11,GAGGATGC,-0.142 ± 0.061
12,TATTGCAA,-0.0938 ± 0.15
13,CGCAAAAG,0.106 ± 0.096
14,CGTACCTA,-0.0536 ± 0.039
15,CGACTCAC,0.154 ± 0.051
16,CATATCCC,-0.0739 ± 0.056
17,GGAAGCAC,-0.23 ± 0.015
18,AGGGGAAT,0.0115 ± 0.057
19,CTAGAGAA,-0.3014 ± 0.0017
20,CTTAGAGA,-0.0721 ± 0.056
21,CCCCTTCC,-0.0801 ± 0.025
22,ACTAAAGG,0.0782 ± 0.01
23,ATTCACAA,0.247 ± 0.024
24,GAATGGGC,-0.0404 ± 0.062
25,CGCACGCG,0.248 ± 0.036

row,Sequence,PBM E-score of 8-mer
1,CAGAGCAC,-0.209 ± 0.13
2,GATCTGGC,0.0179 ± 0.036
3,GGGGGCAC,-0.0925 ± 0.045
4,ATCGGTGG,-0.0425 ± 0.03
5,ATCCGATG,-0.0392 ± 0.042
6,AGGGCCCA,-0.193 ± 0.015
7,ACCCATCA,-0.0248 ± 0.064
8,AACTGGCT,-0.182 ± 0.078
9,AGAGCGGG,-0.151 ± 0.039
10,CGAAGGCC,-0.105 ± 0.055
11,AAAAGGCG,0.197 ± 0.037
12,GATAAGGC,0.105 ± 0.069
13,AATAAATC,-0.167 ± 0.018
14,CCTAATCC,-0.128 ± 0.044
15,GAGTTGAA,0.0188 ± 0.085
16,CATACGAA,-0.0882 ± 0.045
17,CTTCCCGC,-0.0401 ± 0.07
18,GTCCCCTA,-0.175 ± 0.076
19,AGTGAACT,-0.118 ± 0.056
20,CAATGTAA,0.025 ± 0.093
21,AATAGAGT,-0.0113 ± 0.0051
22,CAAGTGAG,0.254 ± 0.037
23,TAAAACGA,-0.0147 ± 0.047
24,ATGTACCC,0.0216 ± 0.0037
25,ACAACCAG,0.0895 ± 0.034

row,Sequence,PBM E-score of 8-mer
1,AGCAGGGA,0.00886 ± 0.045
2,AAAACCGA,-0.0105 ± 0.042
3,TCATGACA,0.242 ± 0.045
4,CCTGAAGA,-0.202 ± 0.023
5,GAACGACC,-0.0639 ± 0.034
6,ATTAATCA,-0.144 ± 0.16
7,TCCCGTCA,0.105 ± 0.073
8,AATCGAGG,0.0132 ± 0.066
9,AATGTCTG,-0.0348 ± 0.02
10,CGCGATGA,0.169 ± 0.0058
11,CTCCACAG,-0.059 ± 0.095
12,CAGCAGAA,-0.176 ± 0.013
13,GCGTCGAA,0.103 ± 0.051
14,CCTGCGAA,0.367 ± 0.025
15,CCCATCCC,-0.164 ± 0.083
16,CTAACTAG,0.0684 ± 0.0073
17,ATGGCAAA,-0.166 ± 0.041
18,AACATGAG,-0.0864 ± 0.051
19,CTACACGA,-0.194 ± 0.0027
20,AAACATCC,-0.101 ± 0.042
21,AGAAGAAC,-0.282 ± 0.01
22,CGCATGAA,-0.167 ± 0.025
23,AATGTATC,-0.0495 ± 0.0079
24,AGGCACAT,-0.0671 ± 0.041
25,CACACACA,0.303 ± 0.0096

row,Sequence,PBM E-score of 8-mer
1,ATGTAGCG,-0.0122 ± 0.0024
2,AGGCAGTG,-0.295 ± 0.059
3,ACCTCTCG,0.194 ± 0.073
4,ATAGAGGA,-0.147 ± 0.013
5,ACCGGCCA,-0.0982 ± 0.0037
6,GAGATCCC,-0.0869 ± 0.09
7,AGGCCGCC,-0.223 ± 0.025
8,GAGATAAA,-0.06 ± 0.035
9,ACCTCAGA,0.122 ± 0.0097
10,AATGGATC,-0.166 ± 0.035
11,TGTGGTAA,0.16 ± 0.035
12,AGTCACAT,0.11 ± 0.058
13,CGTTAAGA,0.0228 ± 0.045
14,CTCACAAC,0.3462 ± 0.0029
15,TAATCGGA,0.0209 ± 0.11
16,ATCCTCGA,0.0553 ± 0.0014
17,AACCGGAC,-0.118 ± 0.08
18,CGCGAGAG,0.258 ± 0.036
19,ACGGAAAA,-0.112 ± 0.028
20,ATGGTCAC,0.0334 ± 0.1
21,ATCCCAGA,-0.036 ± 0.029
22,CCACAGAG,-0.192 ± 0.025
23,TCTATGAA,-0.102 ± 0.0055
24,CCAAAACA,0.0379 ± 0.018
25,GGCTGCAA,-0.0812 ± 0.091

row,Sequence,PBM E-score of 8-mer
1,ACCTGCCA,0.2808 ± 0.0012
2,TGCTTCAA,-0.187 ± 0.019
3,ACATTCCA,-0.101 ± 0.0052
4,CAATTTCG,0.107 ± 0.044
5,ACTAATCA,0.125 ± 0.017
6,AATGGAAG,-0.042 ± 0.054
7,CTGCCGAA,-0.0973 ± 0.023
8,ACTGGCGA,0.183 ± 0.042
9,ACGACATC,-0.0462 ± 0.028
10,CACTACCC,0.114 ± 0.015
11,ACACCGAG,0.214 ± 0.045
12,CCTGGAAG,-0.0146 ± 0.009
13,CAGGATCG,0.104 ± 0.086
14,CCCGGAAA,-0.188 ± 0.0093
15,ACTAGCGC,0.191 ± 0.034
16,AAAGAGAG,0.0214 ± 0.073
17,CATAAGGA,-0.154 ± 0.021
18,AGTCATCC,-0.273 ± 0.052
19,GCGCGTAC,0.157 ± 0.046
20,CAGCCCGG,-0.112 ± 0.0029
21,CTCCGACA,0.2833 ± 0.00057
22,ACTCTTGG,-0.021 ± 0.043
